Publication PMC9911399, “Two distinct binding modes provide the RNA-binding protein RbFox with extraordinary sequence specificity”
Positions count from the first letter of the chain named. This is one part of the list.

B1: CAUUUAG (DNA:RNA)
RNA: GGGAGACCGGAAUUCAGAUUGUCCCAUUUAGUUAAAUCCCGUCGUAGCCACCA
DNA 1: CAATCTGAATTCCGGTCTCCC
DNA 2: TGGTGGCTACGACGGGATT
B2: UAUCGGC (DNA:RNA)
RNA: B1 RNA with C25U, U28C, U29G, A30G, G31C
DNA 1: CAATCTGAATTCCGGTCTCCC
DNA 2: TGGTGGCTACGACGGGATT
B3: UCGCCGA (DNA:RNA)
RNA: GGGAGACCGGAAUUCAGAUUGUCCUCGCCGAUUAAAUCCCGUCGUAGCCACCA
DNA 1: CAATCTGAATTCCGGTCTCCC
DNA 2: TGGTGGCTACGACGGGATT
B4: ACACCUU (DNA:RNA)
RNA: B3 RNA with U25A, G27A, G30U, A31U
DNA 1: CAATCTGAATTCCGGTCTCCC
DNA 2: TGGTGGCTACGACGGGATT
B5: GGCUACU (DNA:RNA)
RNA: B1 RNA with C25G, A26G, U27C, U29A, A30C, G31U
DNA 1: CAATCTGAATTCCGGTCTCCC
DNA 2: TGGTGGCTACGACGGGATT
B6: UAACGUU (DNA:RNA)
RNA: B3 RNA with C26A, G27A, C29G, G30U, A31U
DNA 1: CAATCTGAATTCCGGTCTCCC
DNA 2: TGGTGGCTACGACGGGATT
B7: GCCAAGA (DNA:RNA)
RNA: B3 RNA with U25G, G27C, C28A, C29A
DNA 1: CAATCTGAATTCCGGTCTCCC
DNA 2: TGGTGGCTACGACGGGATT
B8: GCUGGUA (DNA:RNA)
RNA: B3 RNA with U25G, G27U, C28G, C29G, G30U
DNA 1: CAATCTGAATTCCGGTCTCCC
DNA 2: TGGTGGCTACGACGGGATT
B9: GUACGCG (DNA:RNA)
RNA: B1 RNA with C25G, A26U, U27A, U28C, U29G, A30C
DNA 1: CAATCTGAATTCCGGTCTCCC
DNA 2: TGGTGGCTACGACGGGATT
B10: AUGAGAC (DNA:RNA)
RNA: B1 RNA with C25A, A26U, U27G, U28A, U29G, G31C
DNA 1: CAATCTGAATTCCGGTCTCCC
DNA 2: TGGTGGCTACGACGGGATT
B11: UAGUCUA (DNA:RNA)
RNA: B3 RNA with C26A, C28U, G30U
DNA 1: CAATCTGAATTCCGGTCTCCC
DNA 2: TGGTGGCTACGACGGGATT
B12: UACAGUC (DNA:RNA)
RNA: B1 RNA with C25U, U27C, U28A, U29G, A30U, G31C
DNA 1: CAATCTGAATTCCGGTCTCCC
DNA 2: TGGTGGCTACGACGGGATT
B13: AUACCGC (DNA:RNA)
RNA: B3 RNA with U25A, C26U, G27A, A31C
DNA 1: CAATCTGAATTCCGGTCTCCC
DNA 2: TGGTGGCTACGACGGGATT
B14: GCUAGGA (DNA:RNA)
RNA: B3 RNA with U25G, G27U, C28A, C29G
DNA 1: CAATCTGAATTCCGGTCTCCC
DNA 2: TGGTGGCTACGACGGGATT
B15: CAGUCGG (DNA:RNA)
RNA: B1 RNA with U27G, U29C, A30G
DNA 1: CAATCTGAATTCCGGTCTCCC
DNA 2: TGGTGGCTACGACGGGATT
B16: ACGUUCU (DNA:RNA)
RNA: B1 RNA with C25A, A26C, U27G, A30C, G31U
DNA 1: CAATCTGAATTCCGGTCTCCC
DNA 2: TGGTGGCTACGACGGGATT
B17: GUAUCCA (DNA:RNA)
RNA: B3 RNA with U25G, C26U, G27A, C28U, G30C
DNA 1: CAATCTGAATTCCGGTCTCCC
DNA 2: TGGTGGCTACGACGGGATT
B18: UCCAGGG (DNA:RNA)
RNA: B3 RNA with G27C, C28A, C29G, A31G
DNA 1: CAATCTGAATTCCGGTCTCCC
DNA 2: TGGTGGCTACGACGGGATT
B19: UAGUUAU (DNA:RNA)
RNA: B1 RNA with C25U, U27G, G31U
DNA 1: CAATCTGAATTCCGGTCTCCC
DNA 2: TGGTGGCTACGACGGGATT
B20: UGAUUUU (DNA:RNA)
RNA: B1 RNA with C25U, A26G, U27A, A30U, G31U
DNA 1: CAATCTGAATTCCGGTCTCCC
DNA 2: TGGTGGCTACGACGGGATT
B21: AUCAUUG (DNA:RNA)
RNA: B1 RNA with C25A, A26U, U27C, U28A, A30U
DNA 1: CAATCTGAATTCCGGTCTCCC
DNA 2: TGGTGGCTACGACGGGATT
B22: GAAUUUA (DNA:RNA)
RNA: B1 RNA with C25G, U27A, A30U, G31A
DNA 1: CAATCTGAATTCCGGTCTCCC
DNA 2: TGGTGGCTACGACGGGATT
B23: CAGCCAC (DNA:RNA)
RNA: B1 RNA with U27G, U28C, U29C, G31C
DNA 1: CAATCTGAATTCCGGTCTCCC
DNA 2: TGGTGGCTACGACGGGATT
B24: AGCCUAU (DNA:RNA)
RNA: B1 RNA with C25A, A26G, U27C, U28C, G31U
DNA 1: CAATCTGAATTCCGGTCTCCC
DNA 2: TGGTGGCTACGACGGGATT
B25: UACACCC (DNA:RNA)
RNA: B3 RNA with C26A, G27C, C28A, G30C, A31C
DNA 1: CAATCTGAATTCCGGTCTCCC
DNA 2: TGGTGGCTACGACGGGATT
B26: GUCUUUC (DNA:RNA)
RNA: B1 RNA with C25G, A26U, U27C, A30U, G31C
DNA 1: CAATCTGAATTCCGGTCTCCC
DNA 2: TGGTGGCTACGACGGGATT
B27: AGGGUAU (DNA:RNA)
RNA: B1 RNA with C25A, A26G, U27G, U28G, G31U
DNA 1: CAATCTGAATTCCGGTCTCCC
DNA 2: TGGTGGCTACGACGGGATT
B28: GGGACAA (DNA:RNA)
RNA: B3 RNA with U25G, C26G, C28A, G30A
DNA 1: CAATCTGAATTCCGGTCTCCC
DNA 2: TGGTGGCTACGACGGGATT
B29: GUACUCU (DNA:RNA)
RNA: B1 RNA with C25G, A26U, U27A, U28C, A30C, G31U
DNA 1: CAATCTGAATTCCGGTCTCCC
DNA 2: TGGTGGCTACGACGGGATT
B30: CAUUCGG (DNA:RNA)
RNA: B1 RNA with U29C, A30G
DNA 1: CAATCTGAATTCCGGTCTCCC
DNA 2: TGGTGGCTACGACGGGATT
B31: UAGAUUC (DNA:RNA)
RNA: B1 RNA with C25U, U27G, U28A, A30U, G31C
DNA 1: CAATCTGAATTCCGGTCTCCC
DNA 2: TGGTGGCTACGACGGGATT

The binders below were run against T1, RBFOX1 RRM RbFoxmut (Fox-RRM*) (Homo sapiens, UniProt Q9NWB1 109-208, R118D;E147R;N151S;E152T) (assay: EMSA; HiTS-Eq, 1 nM pool, 10 min; buffer printed only for the single-RNA assays: 10 mM Tris pH 7.5, 150 mM NaCl, 3.4 mM EDTA, 0.001% NP-40, 30 C). Details: tags: His6 N-terminal (pET28a); label: 5' 32P.
T1 sequence: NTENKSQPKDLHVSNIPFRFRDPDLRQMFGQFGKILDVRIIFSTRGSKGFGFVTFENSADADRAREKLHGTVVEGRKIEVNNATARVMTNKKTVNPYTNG
Summary of the method: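 Purified wild-type or mutant RbFox RRM at increasing concentrations was equilibrated with 1 nM of 5′-radiolabelled RNA carrying 7 randomized nucleotides for 10 min in 50 µL. Unbound RNA was separated by 8% native PAGE and sequenced. Relative association constants came from read-count changes of each RNA species compared with the control reaction, normalised to the cognate motif.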

Row | Binder | binding signal
1 | B1 | 0.152 KA relative to UGCAUGU
2 | B2 | 0.0946 KA relative to UGCAUGU
3 | B3 | 0.0565 KA relative to UGCAUGU
4 | B4 | 0.0737 KA relative to UGCAUGU
5 | B5 | 0.0816 KA relative to UGCAUGU
6 | B6 | 0.064 KA relative to UGCAUGU
7 | B7 | 0.0658 KA relative to UGCAUGU
8 | B8 | 0.188 KA relative to UGCAUGU
9 | B9 | 0.138 KA relative to UGCAUGU
10 | B10 | 0.0801 KA relative to UGCAUGU
11 | B11 | 0.0925 KA relative to UGCAUGU
12 | B12 | 0.0558 KA relative to UGCAUGU
13 | B13 | 0.107 KA relative to UGCAUGU
14 | B14 | 0.0659 KA relative to UGCAUGU
15 | B15 | 0.0726 KA relative to UGCAUGU
16 | B16 | 0.0626 KA relative to UGCAUGU

Row | Binder | binding signal
17 | B17 | 0.154 KA relative to UGCAUGU
18 | B18 | 0.09 KA relative to UGCAUGU
19 | B19 | 0.123 KA relative to UGCAUGU
20 | B20 | 0.079 KA relative to UGCAUGU
21 | B21 | 0.136 KA relative to UGCAUGU
22 | B22 | 0.136 KA relative to UGCAUGU
23 | B23 | 0.0877 KA relative to UGCAUGU
24 | B24 | 0.0856 KA relative to UGCAUGU
25 | B25 | 0.0668 KA relative to UGCAUGU
26 | B26 | 0.059 KA relative to UGCAUGU
27 | B27 | 0.156 KA relative to UGCAUGU
28 | B28 | 0.044 KA relative to UGCAUGU
29 | B29 | 0.0878 KA relative to UGCAUGU
30 | B30 | 0.0659 KA relative to UGCAUGU
31 | B31 | 0.0894 KA relative to UGCAUGU
